Experimental data as given in the antibiotic and cytotoxicity screens of Wong et al. (2023).
This is one part of the list.

Tested on: HSkMC (human skeletal muscle cells)
Assay: cytotoxicity call (relative viability < 0.9)
Settings: 10 µM

SMILES | cytotoxicity call
Cc1noc(C)c1S(=O)(=O)Nc1ccc2c(c1)C(=O)N([C@@H](C)CO)C[C@H](C)[C@@H](CN(C)S(=O)(=O)c1ccc(F)cc1)O2 | inactive
CCCOc1ccc(S(=O)(=O)NCC[C@@H]2CCCN2C)cc1-c1nc2c(CCC)nn(C)c2c(=O)[nH]1 | inactive
Cc1ccc(S(=O)(=O)Nc2ccc3c(c2)C(=O)N([C@H](C)CO)C[C@@H](C)[C@@H](CN(C)S(=O)(=O)c2ccc(Cl)cc2)OCCCC[C@@H](C)O3)cc1 | inactive
C[C@@H]1CN([C@H](C)CO)C(=O)c2cccc(NC(=O)Nc3ccccc3)c2O[C@H]1CN(C)C(=O)Nc1ccc(C(F)(F)F)cc1 | inactive
C[C@@H]1CCCCO[C@@H](CN(C)S(=O)(=O)c2ccccc2)[C@H](C)CN([C@H](C)CO)C(=O)c2cc(NC(=O)CCC(F)(F)F)ccc2O1 | inactive
C[C@@H]1CN([C@H](C)CO)C(=O)Cc2cc(NC(=O)c3ccncc3)ccc2O[C@H]1CN(C)Cc1ccc(-c2ccccc2)cc1 | inactive
C[C@@H]1CCCCO[C@H](CN(C)Cc2ccncc2)[C@@H](C)CN([C@H](C)CO)C(=O)c2cc(NC(=O)Nc3ccc4c(c3)OCO4)ccc2O1 | inactive
Cc1ccc(S(=O)(=O)N(C)C[C@H]2OCCCC[C@H](C)Oc3ccc(NC(=O)NC4CCCCC4)cc3C(=O)N([C@@H](C)CO)C[C@@H]2C)cc1 | inactive
Clc1ccc(CSc2nc3ccccc3s2)cc1 | inactive
CN(C)C1CN(S(=O)(=O)CCC2CC2)C1 | inactive

Tested on: S. aureus RN4220
Assay: growth inhibition call (relative growth <= 0.2)
Settings: 50 µM

SMILES | growth inhibition call
CO[C@@H]1CN(C)C(=O)c2cc(NS(=O)(=O)CC(F)(F)F)ccc2OC[C@H](C)N(C(=O)c2ccc3c(c2)OCO3)C[C@@H]1C | inactive
Cc1noc(C)c1S(=O)(=O)Nc1ccc2c(c1)C(=O)N([C@H](C)CO)C[C@H](C)[C@@H](CN(C)Cc1ccc(Cl)c(Cl)c1)OCCCC[C@@H](C)O2 | inactive
C[C@@H]1CCCCO[C@@H](CN(C)S(=O)(=O)c2ccc(Cl)cc2)[C@@H](C)CN([C@H](C)CO)C(=O)c2cc(NC(=O)Cc3ccccc3)ccc2O1 | inactive
Cc1ccc(S(=O)(=O)Nc2ccc3c(c2)C(=O)N([C@H](C)CO)C[C@H](C)[C@H](CN(C)C(=O)CCC(F)(F)F)OCCCC[C@H](C)O3)cc1 | inactive
O=C(CC(=O)N1CCOCC1)N1CCOCC1 | inactive
C[C@H](CO)N1C[C@H](C)[C@@H](CN(C)CC2CCCCC2)Oc2ccc(NC(=O)Nc3ccccc3)cc2C1=O | inactive
C[C@@H]1CN([C@H](C)CO)C(=O)c2cc(NC(=O)Nc3ccccc3)ccc2O[C@@H](C)CCCCO[C@@H]1CN(C)C(=O)NC1CCCCC1 | inactive
C[C@H](CO)N1C[C@H](C)[C@@H](CN(C)C(=O)C2CC2)Oc2ncc(-c3ccc(C(=O)N(C)C)cc3)cc2C1=O | inactive
C[C@@H]1CN([C@H](C)CO)C(=O)Cc2cc(NC(=O)CCN3CCOCC3)ccc2O[C@@H]1CN(C)Cc1ccncc1 | inactive
C[C@H](CO)N1C[C@H](C)[C@@H](CN(C)C(=O)Nc2ccc(N3CCN(C)CC3)cc2)OCc2cnnn2CCCC1=O | inactive
C[C@H]1O[C@@H](n2cc(F)c(=O)[nH]c2=O)[C@H](O)[C@@H]1O | inactive
CCCN(C)C[C@@H]1Oc2cc(C#Cc3ccccc3OC)ccc2S(=O)(=O)N([C@@H](C)CO)C[C@@H]1C | inactive
C[C@H](CO)N1C[C@H](C)[C@H](CN(C)Cc2ccc(Cl)c(Cl)c2)Oc2ccc(NC(=O)Nc3ccccc3)cc2C1=O | inactive
COC(=O)C1=CC(CCCO)=C[C@@H](c2ccc(CN3CCCC3)cc2)N(Cc2sc3ccccc3c2Cl)C=C1C(=O)OC | inactive
O=C(N[C@@H](c1ccccc1)c1ccc2ccccc2n1)C1CCN(C(=O)NC(c2ccccc2)c2ccccc2)CC1 | inactive
OCc1cc(O)c2c(O)c3c(O)cccc3c(O[C@@H]3O[C@H](CO)[C@H](O)[C@@H](O)[C@H]3O)c2c1 | inactive
OCCN1CCN(c2ncnc3c2ncn3[C@H]2CN(Cc3cccc(C(F)(F)F)c3)C[C@@H](CO)O2)CC1 | inactive
Cc1noc(C)c1NC(=O)N(C)C[C@H]1Oc2c(NS(C)(=O)=O)cccc2C(=O)N([C@@H](C)CO)C[C@H]1C | inactive
CC1(C)CCC2(C(=O)O)CCC3(C)C(=CCC4C5(C)CCC(O)C(C)(C)C5CCC43C)C2C1 (stereo not given) | inactive
C[C@@H]1CN([C@@H](C)CO)C(=O)c2cc(NC(=O)Nc3cccc4ccccc34)ccc2O[C@H]1CN(C)C(=O)Nc1ccc(F)cc1 | inactive
